From publication PMC4336329 (PLoS ONE, 2015) come the findings set out here.

Out of some 310,000 compounds screened, about 14,000 (4.5%) showed an effect of 50% or more. The effect is printed as a negative number. The list shows a part of the results.
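Also: peak tail current of the secondary pulse compared with the same well before compound.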

Sequence of human ether-à-go-go-related gene (hERG) potassium channel (Q12809 whole entry, looked up): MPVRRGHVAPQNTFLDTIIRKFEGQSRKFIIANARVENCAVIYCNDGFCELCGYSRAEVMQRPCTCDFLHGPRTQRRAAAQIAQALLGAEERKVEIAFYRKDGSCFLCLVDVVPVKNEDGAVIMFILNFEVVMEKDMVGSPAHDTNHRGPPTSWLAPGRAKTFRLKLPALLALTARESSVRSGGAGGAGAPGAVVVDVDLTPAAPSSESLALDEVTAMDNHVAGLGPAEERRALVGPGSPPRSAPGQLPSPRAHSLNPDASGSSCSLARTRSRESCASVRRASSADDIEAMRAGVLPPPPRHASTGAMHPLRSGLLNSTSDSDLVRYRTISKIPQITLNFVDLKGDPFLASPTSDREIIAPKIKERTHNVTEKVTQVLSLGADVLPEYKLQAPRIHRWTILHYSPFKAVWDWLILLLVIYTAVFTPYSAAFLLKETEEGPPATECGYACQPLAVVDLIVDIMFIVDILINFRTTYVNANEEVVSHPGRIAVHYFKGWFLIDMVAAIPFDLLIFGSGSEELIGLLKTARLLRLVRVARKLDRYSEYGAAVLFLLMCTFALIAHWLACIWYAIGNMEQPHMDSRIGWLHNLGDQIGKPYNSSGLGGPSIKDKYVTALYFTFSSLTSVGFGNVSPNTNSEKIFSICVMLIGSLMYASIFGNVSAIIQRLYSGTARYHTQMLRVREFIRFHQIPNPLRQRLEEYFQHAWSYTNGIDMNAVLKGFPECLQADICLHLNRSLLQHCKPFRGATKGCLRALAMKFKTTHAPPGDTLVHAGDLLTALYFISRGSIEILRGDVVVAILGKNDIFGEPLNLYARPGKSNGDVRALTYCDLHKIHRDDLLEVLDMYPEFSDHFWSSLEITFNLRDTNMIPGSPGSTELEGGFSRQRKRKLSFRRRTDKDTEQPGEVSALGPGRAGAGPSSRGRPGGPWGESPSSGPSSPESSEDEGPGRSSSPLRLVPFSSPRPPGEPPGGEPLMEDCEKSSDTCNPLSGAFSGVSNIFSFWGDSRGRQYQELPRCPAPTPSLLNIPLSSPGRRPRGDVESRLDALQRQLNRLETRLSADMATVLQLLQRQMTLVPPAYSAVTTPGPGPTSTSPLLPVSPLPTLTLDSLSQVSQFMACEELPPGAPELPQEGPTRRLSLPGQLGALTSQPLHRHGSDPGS

This test addresses human ether-à-go-go-related gene (hERG) potassium channel (human, UniProt Q12809). Put plainly: primary screen, population patch clamp on CHO cells stably expressing hERG.
As for `O=[N+]([O-])c1ccc(-c2nc(NCc3ccccc3)c3ccccc3n2)cc1`, the “hERG current change (%, negative = inhibition) at 10uM” value is reported as 21.2%.
The value for `CCOC(=O)C1NN=C(C(=O)c2ccccc2)C1c1ccccc1` (stereo not shown) was -11.5%.
For `CC[C@H](C)[C@@H](C(=O)NCCCCCCCCCCC(=O)N1CCN(C(=O)OC(C)(C)C)CC1)n1cc(CCCCCNC(=O)OC(C)(C)C)nn1` the value was 0.865%.
In the case of `CC(=O)c1cnc2scnn2c1=O`, the “hERG current change (%, negative = inhibition) at 10uM” value turned out to be 11.4%.
On to `O=C(Nc1ccccc1)N1CC=C(c2ccccc2)CC1`, for which the “hERG current change (%, negative = inhibition) at 10uM” value is -6.6%.
For `O=C(OCC(=O)N(C1CCCCC1)C1CCCCC1)c1cnccn1`, the “hERG current change (%, negative = inhibition) at 10uM” value is reported as -9.03%.
The value for `COC1CCN(Cc2cn(Cc3ccccc3)nc2-c2cc3ccccc3o2)CC1` was -71.9%; that for `Cl.NCCCCCc1nnc(SC/C=C/c2ccccc2)o1` was -20%; that for `O=C(O)c1ccc2c(=O)n(-c3ccccc3F)c(=S)[nH]c2c1` was 5.01%.
The value for `O=C(CCc1nc2ccccc2c(=O)[nH]1)NCCN1C(=O)S/C(=C\c2ccccc2Cl)C1=O` was 5.27%; that for `S=c1[nH]cc(-c2ccccc2)n1-c1ccccc1Cl` was 9.61%; that for `COc1cc2c(cc1OC)C(c1ccc(N(C)C)cc1)CC(=O)N2` (stereo not shown) was -0.468%.
The value for `CCN(CC)S(=O)(=O)c1ccc(NC(=O)CCN2C(=O)C3CC=CCC3C2=O)cc1` (stereo not shown) was -30%; that for `Cc1nonc1NC(=O)CSc1nnnn1-c1ccccc1` was 19.6%.
For `Cc1ccc2oc(NC(=O)N3CCOCC3)cc(=O)c2c1`, the “hERG current change (%, negative = inhibition) at 10uM” value came to 11.8%.
The value for `CC(C)(C)NC(=O)C(=O)NCc1ccncc1` was 11.6%.
The value for `CCCCCCn1c(=O)c(C(=O)Nc2c(C)n(C)n(-c3ccccc3)c2=O)c(O)c2ccccc21` was 13.6%; that for `Brc1csc(C=Nc2ccc3c(c2)OCCOCCOCCOCCO3)c1` was -73.5%; that for `CCCCCCCc1nc2nc(C)c(Br)c(=O)n2[nH]1` was 8.38%.
For `O=c1nc(N2CCOCC2)ccn1Cc1ccc(Br)cc1` the value was 2.48%.
With `CCCC1=C(C(=O)OCC)C(c2ccccc2OCC)NC(=O)N1C` (stereo not shown), the “hERG current change (%, negative = inhibition) at 10uM” value is listed as 0.962%.
The value for `COc1ccc(NC(=O)NNC(=O)C(C)Oc2ccc3ccccc3c2)cc1OC` (stereo not shown) was -16.2%; that for `C/C(NC(=O)c1ccccc1F)=C1\C(=O)C[C@@H]2[C@H]1C2(C)C` was -14.4%.
For `Cc1cccn2c(CN3CCCC(c4ccccc4)C3)c(C(=O)N3CCOCC3)nc12` (stereo not shown) the value was -68.7%; for `O=C(CN(Cc1ccc(Br)cc1)S(=O)(=O)c1ccccc1)NCC1CCCO1` (stereo not shown), -6.72%.
For `CCCCN(C(=O)c1ccc(S(=O)(=O)N(CC)CC)cc1)c1c(N)n(CCC)c(=O)[nH]c1=O` the value was 29.5%.
In the case of `O=C(CC12CCC(CC1)C2)NCc1ccc2c(c1)OCO2`, the “hERG current change (%, negative = inhibition) at 10uM” value came to 1.99%.
The value for `CCOc1ccc(N=C2SC(C(=O)Nc3ccccc3C#N)C(N)=C2C(=O)Nc2ccc(Cl)cc2)cc1` (stereo not shown) was 18.1%; that for `CCOC(=O)c1sc(NC(=O)CN2C(=O)NC3(CCC(C)CC3)C2=O)c(C(=O)OCC)c1C` (stereo not shown) was 8.78%; that for `CC(C)NCC(O)COCCOc1ccc(C(C)(C)C)cc1.Cl` (stereo not shown) was -8.61%.
The value for `COc1ccc(C(=O)Nc2c3c(nn2-c2ccc(Cl)cc2)CS(=O)(=O)C3)cc1` was -6.97%; that for `CC1CCN(c2c(NCC3CCC(C(=O)N4CCc5ccccc5C4)CC3)c(=O)c2=O)CC1` (stereo not shown) was 11.8%; that for `CN1CC(=O)N(CC(=O)N2CCC(Cc3ccccc3)CC2)C1=O` was 26.1%.
The value for `COc1cccc(C(=O)Nc2ccc(S(=O)(=O)N3CCN(C)CC3)cc2)c1` was 6.51%; that for `COc1ccc(-c2sc3cc(OC)c(OC)cc3c2C#CC(C)(C)O)cc1` was 23.7%; that for `COc1ccccc1N1CCN(CCC(=O)Nc2ccc(F)cc2)CC1` was -19.3%.
For the molecule `CCOc1ccc2nc(N3CCCCCC3)sc2c1`, the “hERG current change (%, negative = inhibition) at 10uM” value was -19.2%.
Turning to `CCOCCCNC(C(=O)Nc1ccc(OC)c(Cl)c1)c1ccccc1` (stereo not shown), the “hERG current change (%, negative = inhibition) at 10uM” value is recorded as -35.1%.
The value for `O=C(c1ccc(S(=O)(=O)Nc2cccc(C(F)(F)F)c2)cc1)N1CCN(c2ccccc2O)CC1` was -16.5%; that for `O=C(COC(=O)c1ccc(F)cc1)NCCCc1ccccc1` was 7.48%; that for `COc1ccc(O)c(C(=O)CC(=O)c2ccc(F)cc2)c1` was -26.8%.
For `CC(C)CN(C(=O)c1cccc(S(=O)(=O)N2CCN(Cc3ccccc3)CC2)c1)C1CCS(=O)(=O)C1` (stereo not shown) the value was -1.5%; for `Cc1cc(/C=C2\C(=O)NN(c3ccccc3)C2=O)c(C)n1-c1ccccc1O`, 6.49%.
